B1: LINE1-mini (parent)
chain: GGCAGAGCUCAACACAGCGUGGCAAAGUGGCUGUGGCUAGACUGCC

Read counts are not given, so values of variants with three or more changes are uncertain.

This note sets out measurements from the RNAGym collection of RNA variant scans (doi:10.7554/elife.90254).

Variants of B1 are the subject of the series. Nature of the series: self-cleavage, relative activity (ratio to wild type); higher = more cleavage; in vitro, sequencing; the parent is a self-cleaving ribozyme.
Regarding G1U C23G G29C U38A, the self-cleavage came out at 0.04. With G1U C15A G17C G21A G36C the figure was 0.02. With G1U G36U C45A the figure was 0.04; with G1U G5U G44A, 0.03; with G2A A4C G17C G22C U43A, 0.05. As for G1U G29U G35U, the self-cleavage was 0.06.

As for G1U G21U G27C U34G, the self-cleavage stood at 0.17. As for G1U G2U C37G A41G C46G, the figure is 0. Take G1U G30U G44C: the self-cleavage is 0.33. With G1U C15A G22U A24C G35C G36A U43C the figure was 0.02; with G1U G2C U32C, 0.03. With G1U C23U G30C G40U the figure was 0.02.

As to G1U G19A G27U C31U G44C, the self-cleavage amounted to 0.05. Turning to G1U C18A G27U U34G G40C, the self-cleavage came out at 0.03. As for G1U U9A C31U G44A, the figure is 0.02. With G1U C23U A26C G29A U32C the figure was 1.04; with G1U C23U U34C, 0.1. With G1U C23A U38C the figure was 0.43.

For G1U C15G G27A, the self-cleavage was determined as 0.01. With G1U U9A G19C U28C G29A C31A G44U the figure was 0; with G1U G2U U9A C10G C23G C31U C46U, 0.01. In the case of G1U G22A C46A, the self-cleavage amounted to 0.52. As for G1U G30C U43G, the figure is 0.66; as for G1U G2A A26G, 0.18. Consider G1U U9A C18G G36U A39G, for which the self-cleavage is 0.

Turning to G2A A4C C8U A11U A24U, the self-cleavage amounted to 0.03. As for G1U C15U C23A A24U A39G, the figure is 0.07; as for G1U G5U A26G G44A, 0.02; as for G1U G19U U28C C46G, 0.07. As for G1U U20G G35A C42A, the figure is 0.09. As for G1U G7A G33U C42U, the self-cleavage was found to be 0.2. For the variant G1U G35C G44U, the self-cleavage was 0.02.

Regarding G1U C15A A24C G30U, the self-cleavage was 0.08. With G1U G5C A11C C15A G19A G30U the figure was 0.01. As for G1U U9C G17A G22U C42A, the figure is 0.01; as for G1U G22A A24U G35U, 0.07. With G1U G5A G21U the figure was 0.02. G1U G2C U9C: the self-cleavage is 0.02. On to G1U G2C C15U G19C A24G G29A C45G, for which the self-cleavage was 0.05. G1U G2C A12U A14U G30U A39U: the self-cleavage worked out at 0.07. As for G1U C23G U28G U32A U43G, the figure is 0.03; as for G1U G5U A6C, 0.07. With G1U G5A C10U the figure was 0.05. As to G1U G22A G29U C31U G35U, the self-cleavage is 0.01. With G1U G17A U20G G22C U32C the figure was 0.03. As for G1U C15A G21A G29A, the figure is 0.01; as for G2A A4G C15U C42G, 0.01. Turning to G1U G5A C8U U9G A14U G22A C46A, the self-cleavage stood at 0.07. With G1U G21U G44U the figure was 0.16. Take G1U U9G G19U: the self-cleavage was found to be 0.01. With G1U U32A G44A the figure was 0.06. As for G1U U20C G36U, the figure is 0.03; as for G1U U32C C37U, 0. As for G1U G5U A26C, the self-cleavage stood at 0.04. As for G1U G2A A6U G7C C13U, the figure is 0.15; as for G1U U9A C13U C15A U20C A24C, 0.01; as for G1U U9G A14U G17A C31A G40U C45G, 0.03.

In the case of G1U C31A G35A, the self-cleavage was determined as 0. With G1U U20G G35A the figure was 0.02.

On to G1U G2C A14G U20C C31U, for which the self-cleavage was found to be 0.03. With G1U C15U G17U G21C A26G G27U the figure was 0.09; with G1U G30U G36A, 0.04. With G1U C18A U28C G33A the figure was 0; with G1U G2A C23U G36U G44U, 0.12. Turning to G1U G2C C13U, the self-cleavage amounted to 0.04. With G1U G17U G19C the figure was 0.57; with G1U G21U U28A C31G C37U A39U, 0.01. With G1U U20G U28G G30U C31A G35A C42A the figure was 0.03; with G1U G17U G44A, 0.04. With G1U G5C C15U G35C the figure was 0.01. Consider G1U G7C C10G A11G A12G A25G C31G, for which the self-cleavage was 0.01.

G2A A4C C8U U38A C42G: the self-cleavage amounted to 0.11. Turning to G1U G2U A6U G36A U38C A39C, the self-cleavage is 0.06. With G1U G7A C42A, the self-cleavage came out at 0.35.

Regarding G1U C18U G27U, the self-cleavage was found to be 0.29.

On to G1U C23A A41U, for which the self-cleavage was 0.17. Turning to G1U G5U C10U G17A, the self-cleavage was determined as 0.05. With G1U G5U C23G U32C C42A G44A C45U C46U the figure was 0.01; with G1U G27U U32C G35U G40C, 0.03. With G1U U9G A11G G40A A41U the figure was 0.02; with G1U U28G C45G, 0.2. For the variant G1U G19U G21U, the self-cleavage was determined as 0.2.

In the case of G1U G17U G27U G30U, the self-cleavage was found to be 0.34.

G1U G5A A12G A25C G44C: the self-cleavage was 0.14. With G1U G17U G35U the figure was 0.04; with G2A A4G C13U G36C, 0.05.

With G1U G5A U20A A26G, the self-cleavage is 0.09.

As to G1U C23U A25C, the self-cleavage is 1.73.

As to G1U C23U A25U, the self-cleavage turned out to be 0.19. Regarding G1U G30A G35U, the self-cleavage stood at 0.03. With G1U G2A A11C A26U U32A C46G the figure was 0. On to G1U G2U A12C C45U, for which the self-cleavage is 0. As for G1U U9C A16C C23G A25G, the figure is 0; as for G1U C15U G29U A41U, 0.15; as for G1U G19A U28G C31U, 0.13. For the variant G1U C15G G17U C37G, the self-cleavage is 0. With G2A A4C G5A C15U A16U G17U G27U G29A U32G the figure was 0.2; with G1U G7U C18G A24G, 0.04. As for G1U G7A G22A A24U G29A G44A, the figure is 0.04; as for G1U G7A G22U A25C G27A U34A C42U, 0.04.

Consider G1U G2U A24G U34C, for which the self-cleavage was determined as 0.02. With G1U G17C A25C the figure was 0.08; with G1U U9G C15A C18U, 0.07.

Turning to G1U G5C G30A C31U, the self-cleavage stood at 0.04. With G1U G7U C8G the figure was 0.04; with G1U U28C G33U, 0.02. With G1U C15U G30C U38G the figure was 0.01.

Turning to G1U U34C U43G, the self-cleavage amounted to 0.

With G1U U34C U43A, the self-cleavage came out at 0.07. As for G2A A4C A12U G22U U28A, the figure is 0.26.

Consider G1U U9A A11G G19A A24U C37G, for which the self-cleavage turned out to be 0.

Regarding G1U G2C A12U, the self-cleavage came to 0.01. For the variant G1U G21U C42A, the self-cleavage came out at 0.26. As for G1U G5A G7C G17A C31A U32C A41U, the self-cleavage amounted to 0.06. Consider G1U U9A G44U, for which the self-cleavage came out at 0.05. As for G1U U34G G36C G40C A41U C46G, the figure is 0.03. For the variant G1U C37U G40A, the self-cleavage is 0.01. As for G1U G29U G30C C37G G40C, the figure is 0.06; as for G1U U32A C42G, 0.09. In the case of G1U U9G G29U C37A A41C G44A, the self-cleavage is 0.

With G1U G5U C18G G22U G35A, the self-cleavage was determined as 0.04. As for G1U G21U G35U, the figure is 0.06; as for G1U G22U U28A, 0.28; as for G1U G22C A26C G36C A41U, 0.03. Regarding G1U G5U A11U, the self-cleavage came out at 0.02. As to G1U G5U A11C, the self-cleavage was found to be 0.07. With G1U G7C A12U C13U A26C, the self-cleavage was determined as 0.42. With G1U G2C G27C C37U A39G the figure was 0.01. With G1U G21U G30A, the self-cleavage turned out to be 0.57. As for G1U U20G A24U G36U, the figure is 0.04.

With G1U G2C C8A C13A G17U G30A C37A, the self-cleavage turned out to be 0.01.

Take G1U G2U U20G C37G C42G: the self-cleavage was found to be 0. As for G1U C23U C45U, the self-cleavage is 0.26. As for G1U G7A C42U C45A, the figure is 0.07; as for G1U C31A G36C, 0.03; as for G1U G19C U20G C31A C42U, 0.02.

With G1U G21C G35U, the self-cleavage turned out to be 0.03. As for G1U G21C A26C G44A, the figure is 0.1; as for G1U G27A U43A, 0.05; as for G1U G30C G33A G35C, 0.02.

For G1U G2A C31U, the self-cleavage is 0.03. As for G1U G2A A4U A6C C23A, the figure is 0.02. As for G1U G7A G40C U43C, the figure is 0.01; as for G1U G19U U32G, 0.06. With G1U U28C G36U the figure was 0.04; with G1U C18A G21A A25C G40A C46U, 0.01; with G1U G2C U9A G21C G33C, 0.01. As to G1U U28G U43G, the self-cleavage worked out at 0.06. As for G1U G2A G22U C23G A24G G44C, the figure is 0.15; as for G1U U9A A16C G30U A41C, 0.03. With G1U G36U C37A G40U the figure was 0.01; with G1U G5U A14U G21U U28G, 0. Consider G1U G21A C42G C45U, for which the self-cleavage is 0.05.

Turning to G1U G17U G22A G27A G33U C46U, the self-cleavage worked out at 0.08. On to G1U G22U C31G C42A, for which the self-cleavage stood at 0.05.

Regarding G1U G2A G5U C10A, the self-cleavage amounted to 0.03. Regarding G1U G7C C37U A39C G44U, the self-cleavage was 0.16. As for G1U G21C G27C G29U A41U U43A, the figure is 0. As for G1U G5U C45G, the figure is 0.05; as for G1U G2U A14G U28C C46U, 0.02; as for G1U G27A G40U, 0.01. As for G1U G2A C10U G36C, the figure is 0.02. For the variant G1U G2U G17C A25G U32A C42U, the self-cleavage came out at 0. For the variant G1U G22A A41C C42A C45G, the self-cleavage is 0.04. As for G2A A4C C23A U32A C37G C42A, the figure is 0.08; as for G1U G17C C42U, 0.06. As for G1U G7C A14G A24G G30C C37A C42A C46A, the figure is 0.03.
